The other results are listed elsewhere or left out. These are noisy estimates, calculated here from bound and input reads.

The assay deals with T1, Pho4 (S. cerevisiae) (UniProt P07270).
T1 sequence: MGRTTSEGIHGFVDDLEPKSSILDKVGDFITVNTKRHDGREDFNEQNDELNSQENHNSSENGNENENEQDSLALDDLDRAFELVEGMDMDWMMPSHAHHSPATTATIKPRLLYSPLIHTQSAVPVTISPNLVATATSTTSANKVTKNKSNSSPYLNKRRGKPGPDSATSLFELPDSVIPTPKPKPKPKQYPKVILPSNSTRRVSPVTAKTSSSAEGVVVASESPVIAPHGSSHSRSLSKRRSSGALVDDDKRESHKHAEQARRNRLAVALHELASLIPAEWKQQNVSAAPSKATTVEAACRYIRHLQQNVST
Kind of assay: relative binding free energy (BET-seq); higher = weaker binding. The settings on record: reference: library average.
In the case of AGATACACGTGTTAAG, the “relative binding free energy” value is 0.19 kcal/mol. Consider GGGATCACGTGGAGCG, for which the “relative binding free energy” value stood at 0.08 kcal/mol. For GGGCCCACGTGTGGTT, the “relative binding free energy” value was found to be 0.14 kcal/mol. ATAAGCACGTGTAAAG: the “relative binding free energy” value is 0.15 kcal/mol. In the case of ATCGTCACGTGTTTTA it was 0 kcal/mol.

Turning to ATAGTCACGTGAAGAG, the “relative binding free energy” value was 0.19 kcal/mol. With ATAGGCACGTGTACGG, the “relative binding free energy” value was -0.14 kcal/mol. Under TAAGGCACGTGCTGGG stands -0.2 kcal/mol. Consider CGGTGCACGTGAGAAT, for which the “relative binding free energy” value is 0.34 kcal/mol. Under GATAGCACGTGTTTGT stands 0.03 kcal/mol; under CAGGGCACGTGGGGTG, -0.27 kcal/mol; under ATGCTCACGTGTTGAT, 0.16 kcal/mol. Consider TTACGCACGTGGGGTC, for which the “relative binding free energy” value was -0.3 kcal/mol. Under AGCATCACGTGGAGGG stands 0.08 kcal/mol; under GTGGTCACGTGGGACA, -0.01 kcal/mol; under TATGACACGTGTGACG, 0.13 kcal/mol. Turning to GATTTCACGTGTGTAG, the “relative binding free energy” value is 0.38 kcal/mol. In the case of TAAAGCACGTGGTATA, the “relative binding free energy” value was -0.13 kcal/mol. In the case of GTTAGCACGTGGGTAA it was -0.15 kcal/mol; in that of ATATTCACGTGGTGGC, 0.12 kcal/mol. Take TTAGGCACGTGTAGTG: the “relative binding free energy” value was 0.02 kcal/mol. Under CTTATCACGTGGGATG stands 0.11 kcal/mol. Turning to GATGTCACGTGTGATG, the “relative binding free energy” value turned out to be 0.22 kcal/mol. In the case of GAGCGCACGTGTGCGT it was 0.08 kcal/mol. In the case of AGTGACACGTGTGTAG it was -0.08 kcal/mol; in that of GTCCGCACGTGTTGGT, 0.09 kcal/mol.

As to AAATGCACGTGAGGGT, the “relative binding free energy” value was found to be 0.12 kcal/mol. Under GAGGGCACGTGGAGGC stands -0.06 kcal/mol; under CGGTGCACGTGTAAAG, 0.02 kcal/mol; under CAAGTCACGTGTGAGT, 0.16 kcal/mol. Under TGGCGCACGTGGAAAG stands 0.01 kcal/mol; under TGTTTCACGTGTGTTA, 0.28 kcal/mol; under TGACGCACGTGGTATA, -0.15 kcal/mol. In the case of TTGTGCACGTGTGTAC, the “relative binding free energy” value is 0.08 kcal/mol. Regarding TATCTCACGTGGTGGC, the “relative binding free energy” value came out at 0.17 kcal/mol.

Turning to GCTTGCACGTGTGGCT, the “relative binding free energy” value was 0.02 kcal/mol. Turning to AGGATCACGTGTAGAA, the “relative binding free energy” value came out at 0.32 kcal/mol.

Take TTAGACACGTGATGTT: the “relative binding free energy” value is 0.1 kcal/mol. In the case of AGAAACACGTGGGGTT it was -0.03 kcal/mol. Take TCTAACACGTGGGGGG: the “relative binding free energy” value was -0.12 kcal/mol. Under TGATTCACGTGTGGGC stands 0.37 kcal/mol; under TAGGGCACGTGAATGC, 0.12 kcal/mol; under AGAGACACGTGAATGG, 0.35 kcal/mol. Turning to CGTGTCACGTGGTGAG, the “relative binding free energy” value is -0.07 kcal/mol.

Consider AGGCGCACGTGGAGGA, for which the “relative binding free energy” value is -0.13 kcal/mol. Turning to TTTTGCACGTGTTGTG, the “relative binding free energy” value stood at 0.06 kcal/mol. As to TTAGGCACGTGGCATA, the “relative binding free energy” value is -0.15 kcal/mol.

On to GTGTTCACGTGGGTTA, for which the “relative binding free energy” value was 0.34 kcal/mol. TTGAACACGTGTTATC: the “relative binding free energy” value worked out at 0.19 kcal/mol.

Consider AAGATCACGTGTGGAG, for which the “relative binding free energy” value was 0.04 kcal/mol.

On to TTAGTCACGTGTGGGG, for which the “relative binding free energy” value stood at 0.2 kcal/mol. In the case of GTTGTCACGTGACGGT it was 0.24 kcal/mol; in that of TTGTGCACGTGGGCTT, -0.15 kcal/mol; in that of CGGGGCACGTGTGTTA, 0.01 kcal/mol. In the case of CATATCACGTGGTTAA it was 0.12 kcal/mol; in that of GTCGACACGTGGGTAG, -0.11 kcal/mol. Turning to TGAGCCACGTGTGTTA, the “relative binding free energy” value was found to be 0.07 kcal/mol. In the case of CTGTACACGTGGAGTG it was -0.06 kcal/mol; in that of TAGTTCACGTGAGTGA, 0.24 kcal/mol; in that of GGGGGCACGTGGGCGC, -0.16 kcal/mol. Under TGTTGCACGTGGTACG stands -0.2 kcal/mol; under TATCGCACGTGTAGTA, 0.06 kcal/mol. As to AGGCGCACGTGAGTGC, the “relative binding free energy” value was 0.16 kcal/mol. In the case of GACGGCACGTGATGGG it was 0.11 kcal/mol; in that of TAATGCACGTGCTGGT, -0.07 kcal/mol; in that of TGTACCACGTGGGGGC, -0.22 kcal/mol. In the case of TGGTTCACGTGAGGCG it was 0.41 kcal/mol. In the case of GTATTCACGTGTTTGT it was 0.18 kcal/mol; in that of ACACTCACGTGGGGGG, 0.05 kcal/mol. In the case of GTTTACACGTGTATGG, the “relative binding free energy” value is 0.16 kcal/mol. In the case of TTTTGCACGTGGGCAG it was -0.22 kcal/mol; in that of TAACTCACGTGTTATT, 0.18 kcal/mol; in that of GGTGTCACGTGTTAGC, 0.24 kcal/mol.

Turning to ACAGTCACGTGTAGGG, the “relative binding free energy” value is 0.06 kcal/mol. Consider AGGTGCACGTGAATGG, for which the “relative binding free energy” value is 0.17 kcal/mol. In the case of TAGTACACGTGTCGGA it was 0.22 kcal/mol. Under GGGTTCACGTGGTCCG stands 0.31 kcal/mol; under TGAGGCACGTGGTTGT, -0.13 kcal/mol; under AATTGCACGTGGATGG, 0.05 kcal/mol. In the case of CGGAACACGTGGTGGT it was -0.07 kcal/mol; in that of ATAGGCACGTGTTCTT, -0.22 kcal/mol; in that of GATGTCACGTGCAGTT, 0.12 kcal/mol.

TTGATCACGTGAGAAG: the “relative binding free energy” value stood at 0.32 kcal/mol.

GGTATCACGTGCTGGG: the “relative binding free energy” value was 0.07 kcal/mol.

In the case of GGATGCACGTGTTGGC, the “relative binding free energy” value was -0.1 kcal/mol.

Consider TATAGCACGTGGTCTG, for which the “relative binding free energy” value was -0.21 kcal/mol.

On to GGAAGCACGTGGGGAA, for which the “relative binding free energy” value was -0.28 kcal/mol. In the case of TTGGACACGTGCTGTG it was -0.03 kcal/mol; in that of TTTTGCACGTGGTTCC, 0.01 kcal/mol; in that of CTGGACACGTGGTGAG, 0.01 kcal/mol. Under AGTAGCACGTGGGAGT stands -0.13 kcal/mol; under TTAGGCACGTGGGCAG, -0.17 kcal/mol; under ATTTTCACGTGAATAT, 0.31 kcal/mol.

As to TTCCTCACGTGTAGTG, the “relative binding free energy” value is 0.26 kcal/mol. Take GTTTCCACGTGTGCTT: the “relative binding free energy” value stood at 0.29 kcal/mol.

For GGTGCCACGTGTTCGT, the “relative binding free energy” value is -0.13 kcal/mol.

For GGACACACGTGAGTGT, the “relative binding free energy” value was 0.28 kcal/mol. In the case of AGTAACACGTGAGTGC, the “relative binding free energy” value is 0.26 kcal/mol. For the sequence ATTGTCACGTGAGGGT, the “relative binding free energy” value stood at 0.29 kcal/mol. TTTAGCACGTGCGCTG: the “relative binding free energy” value was -0.04 kcal/mol. For TCGTTCACGTGGAGTA, the “relative binding free energy” value came to 0.13 kcal/mol. On to TGGGCCACGTGACTGG, for which the “relative binding free energy” value is 0 kcal/mol. Under GGGGCCACGTGCTTGA stands -0.02 kcal/mol. In the case of GTCAGCACGTGTCGGT it was 0.17 kcal/mol.

TTCATCACGTGTGAAG: the “relative binding free energy” value is 0.19 kcal/mol. In the case of TAAGGCACGTGCTTGT it was -0.15 kcal/mol. Under TCTAGCACGTGTTTTG stands 0.01 kcal/mol; under TGTATCACGTGTGTCT, 0.07 kcal/mol; under GGTCACACGTGGCGGG, 0.08 kcal/mol.

Regarding TTACGCACGTGTCGTG, the “relative binding free energy” value is -0.11 kcal/mol. For AGGGGCACGTGAGTAC, the “relative binding free energy” value is 0.04 kcal/mol. Under GGTAGCACGTGAGAAA stands 0.49 kcal/mol. For the sequence ATATTCACGTGATGTG, the “relative binding free energy” value amounted to 0.27 kcal/mol. With TTGGTCACGTGTGATC, the “relative binding free energy” value was 0.03 kcal/mol.

With GTAGACACGTGTGTAG, the “relative binding free energy” value worked out at 0 kcal/mol. In the case of GTGATCACGTGTGATT it was 0.21 kcal/mol; in that of TGATGCACGTGTATTT, -0.04 kcal/mol. Under TAGGTCACGTGACTTT stands 0.19 kcal/mol.

As for TGGATCACGTGCTGGC, the “relative binding free energy” value is 0.19 kcal/mol. In the case of ATTTTCACGTGGTTGG, the “relative binding free energy” value is 0.31 kcal/mol. In the case of CGTATCACGTGTGGTA it was 0.18 kcal/mol; in that of TATGACACGTGATGTG, 0.13 kcal/mol. Under GTGGTCACGTGTCGTT stands 0.09 kcal/mol; under CTTGCCACGTGAGTTT, 0.35 kcal/mol. As for TGGAGCACGTGTCGTT, the “relative binding free energy” value is -0.12 kcal/mol. For the sequence ATAGTCACGTGTCTTG, the “relative binding free energy” value was -0.01 kcal/mol.

As for CGATTCACGTGTGTTT, the “relative binding free energy” value turned out to be 0.31 kcal/mol.

Consider CAGTCCACGTGGTTGG, for which the “relative binding free energy” value is -0.01 kcal/mol.

As to GGCTTCACGTGTGATT, the “relative binding free energy” value came out at 0.37 kcal/mol. Regarding GGGCCCACGTGTAGGT, the “relative binding free energy” value worked out at 0.06 kcal/mol. Under TGAGACACGTGGATGG stands 0.03 kcal/mol. Under TATTGCACGTGGGGAG stands -0.05 kcal/mol. As for GTTTTCACGTGATTTT, the “relative binding free energy” value came out at 0.37 kcal/mol.

In the case of TGGTGCACGTGAGAAG, the “relative binding free energy” value came out at 0.29 kcal/mol. For the sequence GTGTACACGTGATTGC, the “relative binding free energy” value came to 0.22 kcal/mol. In the case of GTGGACACGTGAGCGG it was 0.3 kcal/mol; in that of TGGATCACGTGTTCTG, 0.03 kcal/mol. TGAGGCACGTGGCTGG: the “relative binding free energy” value is -0.13 kcal/mol.

On to TGAATCACGTGTTAGT, for which the “relative binding free energy” value is 0.21 kcal/mol. In the case of GCGTGCACGTGTATGA, the “relative binding free energy” value stood at 0.01 kcal/mol. Regarding GCGCGCACGTGGGAGG, the “relative binding free energy” value is -0.14 kcal/mol. In the case of AGCGGCACGTGTACGG it was -0.06 kcal/mol; in that of TTTTGCACGTGGTCAT, -0.04 kcal/mol. In the case of AGGGGCACGTGATACT it was 0 kcal/mol; in that of TGTGTCACGTGACGGT, 0.17 kcal/mol.

On to GGGATCACGTGCTCGT, for which the “relative binding free energy” value was 0.22 kcal/mol.

(Values after the BET-seq Pho4 binding data (Le et al. 2018).)
